The antibiotic and cytotoxicity screens of Wong et al. (2023)
Some of the results follow.

These compounds were tested on HepG2 (assay: cytotoxicity call (relative viability < 0.9)). Conditions: 10 µM.
`CC(C)C#Cc1cnc2c(c1)C(=O)N([C@H](C)CO)C[C@@H](C)[C@H](CN(C)S(=O)(=O)c1cn(C)cn1)O2` was tested, and the cytotoxicity call was “inactive”. With `C[C@@H]1CN([C@H](C)CO)C(=O)c2cccc(NS(=O)(=O)c3ccccc3)c2O[C@@H]1CN(C)Cc1ccncc1` the cytotoxicity call was “inactive”. For `C[C@H]1CN([C@@H](C)CO)C(=O)Cc2cc(NC(=O)CCN3CCOCC3)ccc2O[C@H]1CN(C)CC1CC1`, the cytotoxicity call was “inactive”. With `C[C@@H]1CN([C@@H](C)CO)C(=O)c2cc(NC(=O)Cc3cn(C)c4ccccc34)ccc2O[C@H]1CN(C)S(C)(=O)=O` the cytotoxicity call was “inactive”. In the case of `Cc1ccc(O)cc1`, the cytotoxicity call is reported as “inactive”. `CC(=O)Oc1ccc(-c2cc(=O)c3c(OC(C)=O)cc(OC(C)=O)cc3o2)cc1` was tested, and the cytotoxicity call was “inactive”. In the case of `CC(C)c1cc(N2CC[C@@H](N)C2)nc(N)n1`, the cytotoxicity call is reported as “inactive”. With `CNC1(C)C2CCC(C2)C1(C)C.Cl` (configuration not stated) the cytotoxicity call was “inactive”. For `CCN1C(=O)[C@H]2[C@H](O)CS[C@H]2C1=O`, the cytotoxicity call was “inactive”. In the case of `C[C@@H]1CN([C@@H](C)CO)C(=O)c2cc(-c3ccc(C#N)cc3)cnc2O[C@H]1CN(C)C(=O)Nc1ccc(C(F)(F)F)cc1`, the cytotoxicity call is reported as “inactive”. In the case of `COc1ccc(S(=O)(=O)N(C)C[C@H]2Oc3ccc(NS(C)(=O)=O)cc3CC(=O)N([C@H](C)CO)C[C@@H]2C)cc1`, the cytotoxicity call is reported as “inactive”. `O=C(NCC[C@H]1CC[C@H](NS(=O)(=O)c2cccc(F)c2)[C@@H](CO)O1)C1CC1` was tested, and the cytotoxicity call was “inactive”. `Cn1cnc(S(=O)(=O)N[C@H]2C=C[C@H](CC(=O)Nc3ccccc3)O[C@H]2CO)c1` was tested, and the cytotoxicity call was “inactive”. For `C[C@@H]1CCCCO[C@H](CN(C)C(=O)NC2CCCCC2)[C@@H](C)CN([C@@H](C)CO)C(=O)c2cc(NC(=O)Nc3ccc(C(F)(F)F)cc3)ccc2O1`, the cytotoxicity call was “inactive”. For `O=C(C[C@@H]1CC[C@H](NC(=O)CN2CCOCC2)[C@H](CO)O1)NCc1cccc(F)c1`, the cytotoxicity call was “inactive”. For `C[C@@H]1CN([C@H](C)CO)C(=O)c2cccc(NC(=O)c3ccc(-c4nccs4)cc3)c2O[C@H]1CN(C)Cc1ccc2c(c1)OCO2`, the cytotoxicity call was “inactive”. In the case of `CC(C)C#Cc1cnc2c(c1)C(=O)N([C@H](C)CO)C[C@@H](C)[C@@H](CN(C)C(=O)c1ccc3c(c1)OCO3)O2`, the cytotoxicity call is reported as “inactive”. In the case of `Cc1nc(-c2ccc(OCC(C)C)c(C#N)c2)sc1C(=O)O`, the cytotoxicity call is reported as “active”. For `O=C(C[C@H]1C[C@@H]2c3cc(NS(=O)(=O)c4ccc(F)cc4)ccc3O[C@@H]2[C@H](CO)O1)NCCN1CCCCC1`, the cytotoxicity call was “inactive”. In the case of `C[C@@H]1CCCCO[C@H](CN(C)CC2CC2)[C@H](C)CN([C@@H](C)CO)C(=O)c2cc(NC(=O)C3CCCCC3)ccc2O1`, the cytotoxicity call is reported as “inactive”. With `C[C@@H]1CN([C@H](C)CO)C(=O)c2c(c3ccccc3n2C)-c2ccccc2CO[C@@H]1CN(C)C(=O)N[C@H](C)c1ccccc1` the cytotoxicity call was “inactive”. With `C[C@@H]1CCCCO[C@H](CN(C)Cc2ccccc2)[C@@H](C)CN([C@@H](C)CO)C(=O)c2cc(NC(=O)Nc3ccccc3)ccc2O1` the cytotoxicity call was “inactive”. `O=C(Nc1ccc(-c2nc3ccc(NC(=O)c4ccc(Cl)cc4)cc3[nH]2)cc1)c1ccc(Cl)cc1` was tested, and the cytotoxicity call was “active”. For `COc1ccc(CNC(=O)C[C@H]2CC[C@@H]3[C@@H](COc4ccc(NC(=O)C(C)C)cc4C(=O)N3C)O2)cc1`, the cytotoxicity call was “inactive”. In the case of `COc1ccc2c3c([nH]c2c1)[C@H](CO)N(Cc1ccccc1)C[C@]13CCN(CC1)C(=O)Nc1cccc(c1)F`, the cytotoxicity call is reported as “inactive”. For `CO[C@@H]1CN(C)C(=O)c2ccc(NC(=O)c3ccc(F)cc3)cc2OC[C@H](C)N(C(=O)CN(C)C)C[C@H]1C`, the cytotoxicity call was “inactive”. For `C[C@H](CO)N1C[C@H](C)[C@@H](CN(C)CC2CCCCC2)Oc2c(NS(=O)(=O)c3cn(C)cn3)cccc2C1=O`, the cytotoxicity call was “inactive”. For `C[C@H](CO)N1C[C@H](C)[C@@H](CN(C)C(=O)Cc2ccccc2)OCCCC[C@H](C)Oc2ccc(NC(=O)NC3CCCCC3)cc2C1=O`, the cytotoxicity call was “inactive”. In the case of `COCC#Cc1cnc2c(c1)C(=O)N([C@@H](C)CO)C[C@@H](C)[C@@H](CN(C)S(=O)(=O)c1ccccc1)O2`, the cytotoxicity call is reported as “inactive”. With `C[C@@H]1CN([C@@H](C)CO)C(=O)c2cc(NS(=O)(=O)c3cccs3)ccc2O[C@@H]1CN(C)CC1CC1` the cytotoxicity call was “inactive”. In the case of `C[C@H]1CCCCO[C@H](CN(C)C(=O)Nc2ccc(C(F)(F)F)cc2)[C@@H](C)CN([C@@H](C)CO)C(=O)c2cc(NC(=O)NC3CCCCC3)ccc2O1`, the cytotoxicity call is reported as “inactive”. With `C[C@@H]1CN([C@@H](C)CO)C(=O)c2cc(NC(=O)c3ccncc3)ccc2O[C@@H](C)CCCCO[C@@H]1CN(C)C(=O)C1CCCCC1` the cytotoxicity call was “inactive”.
